Experimental data: PubChem BioAssay AID1671194 (National Center for Advancing Translational Sciences (NCATS), 2021)
Out of some 140,000 compounds screened, about 240 (0.17%) were called active. This list was built around the results that the source calls inconclusive (neither active nor inactive); the mix of calls is not that of the screen. Calls come from the whole dose curve; as a rule, active = well fitted inhibition curve with a large enough effect; inconclusive = small, poorly fitted or top-dose-only effect; inactive = no such curve, though single readings can be large or run the other way. Potencies of inconclusive entries are doubtful fits and often do not repeat.

test: Primary qHTS assay for inhibitors of alpha-synuclein gene (SNCA) expression; details: HEK-293 SNCA-luciferase knock-in, luminescence, 24 h; series mostly up to 57.2 µM; note: nearly all actives have a fitted effect of over 45% in size
Potency is the fitted concentration of half-maximal effect; tags give direction and shape of the fitted curve.

Potency, inactive:
COc1ccc([C@@H]2CN(c3ncccc3C#N)C[C@H]2NC(C)=O)cc1
C[C@H]1CCCN1C(=O)c1nnc(CNCc2ccc3c(c2)OCO3)n1-c1cccnc1
COc1ccc(CCN(Cc2ccncc2)C(=O)CC2COCCN2)cc1 (configuration not stated)
COc1ccc(OC)c(CN2CCNc3cnc(Nc4cccnc4)cc3C2)c1
COc1cccc(CCC2CCCN(C(=O)c3ccoc3C)C2)c1 (configuration not stated)
COc1ccc(CCCc2nnc(SCC(=O)Nc3cccc(C)c3)o2)cc1
Cn1nc(C2CCCN2)c2c(C(=O)NCC(F)(F)F)cc(C3CC3)nc21 (configuration not stated)
O=C(c1ccc2cc[nH]c2c1)N1CCCC(Cc2noc(-c3cnccn3)n2)C1 (configuration not stated)
O=C(NCc1nnc2cc(-c3nc(C4CC4)no3)ccn12)C1(c2ccccc2)CC1
O=C(c1ccc(Cl)nc1)N1CCCC(C(=O)N2CCC(c3nc4ccncc4[nH]3)CC2)C1 (configuration not stated)
O=C(Nc1ccc2c(c1)OCO2)c1cccc2c1CCN2C(=O)Nc1ccc(F)cc1
COc1cc2c(cc1OC)C(CNC(=O)c1ccco1)N(C(=O)Nc1cccc(F)c1)CC2 (configuration not stated)
CN1C[C@H](O)C[C@H]1c1nnc2n1CCN(C(=O)CC1CCCC1)CC2
COc1ccc(Nc2ccnc(N3CCCC(C(=O)N4CCCC(C)C4)C3)n2)cc1 (configuration not stated)
O=C(c1ccc(C(F)(F)F)cc1)N1CCC2(CC1)C(=NC1CCCC1)NC(=O)N2c1cccnc1
COc1ccc2nc3n(c2c1)[C@@H](CNS(=O)(=O)c1ccc(F)cc1)COC3
Cc1ccc(S(=O)(=O)N2CCC(n3cnnc3-c3ccccc3)CC2)cc1C
N#Cc1cccc(-c2ccnc(N[C@H]3CO[C@H]4[C@@H]3OC[C@@H]4NC(=O)N3CCOCC3)n2)c1

Potency, active:
C=CC(=O)Nc1cccc(Nc2nc(NC3CCC(N(C)C)CC3)nc3c2ncn3C(C)C)c1 (configuration not stated) 3.04 µM

Potency, inconclusive:
COc1ccc(-c2nc(C3CC(=O)N(c4ccc(C)cc4)C3)no2)cc1 (configuration not stated) 7.94 µM [inhibitor, single point]
CCOC(=O)C1CCCN(C(=O)c2cnc3cc(C)nn3c2)C1 (configuration not stated) 56.2 µM [inhibitor, single point]
Cc1nn(CCC(=O)NCc2ccc(Cl)cc2)c(=O)c2nn(-c3ccccc3)c(C)c12 39.8 µM [inhibitor, single point]
O=C(CN1C(=O)NC2(CCOCC2)C1=O)NC1CCc2ccccc21 (configuration not stated) 6.31 µM [inhibitor, single point]
Cc1ccc2[nH]cc(C(c3ccccc3)c3ccc(C)s3)c2c1 (configuration not stated) 15.8 µM [inhibitor, partial curve, poor fit]
O=C1COc2ccc(OCc3ccccc3)nc2CN1Cc1ccc(F)cc1 11.2 µM [inhibitor, partial curve, poor fit]
Cc1ccc(C2NC(=O)N(CC(=O)Nc3ccc(C(C)C)cc3)C3=C2C(=O)OC3)cc1 (configuration not stated) 7.94 µM [inhibitor, full curve, poor fit]
COc1cc(OC)cc(C(=O)N2CCCN(c3cc(-c4ccc(Br)cc4)[nH]n3)CC2)c1 20 µM [inhibitor, partial curve, poor fit]
CCCN1CCN(c2cc3c(cc2F)c(=O)c(S(=O)(=O)c2ccc(CC)cc2)cn3CC)CC1 39.8 µM [inhibitor, single point]
Cc1nn(CC(=O)N2CCN(c3cccc(C(F)(F)F)c3)CC2)c(=O)c2cc3sccc3n12 5.01 µM [inhibitor, partial curve, poor fit]
COc1ccc2[nH]c(C[C@@H]3C[C@@H](C(C)C)[C@H](CNCc4cccnc4)C=C3C)nc2n1 7.08 µM [inhibitor, partial curve, poor fit]
CC1Cn2c(C(=O)NCc3cccc(Br)c3)cc3cccc(c32)S1 (configuration not stated) 2.82 µM [inhibitor, single point]
COCC(=O)NC[C@H]1CCN(Cc2cccc(Cl)c2)C[C@H]1N(C)C 39.8 µM [inhibitor, single point]
COc1ccc(OC)c(NC(=O)CCC2CCN(C(=O)c3ccccc3)CC2)c1 5.01 µM [inhibitor, full curve, poor fit]
O=C(NCC1CCOCC1)[C@@H]1C[C@@H](c2ccc(F)cc2)N(CCOc2ccccc2)C1 4.47 µM [inhibitor, full curve, poor fit]
COc1cc(OC)cc(-c2cc3nc(C)c(CCC(=O)Nc4ccc(C(C)=O)cc4)c(C)n3n2)c1 2 µM [inhibitor, full curve, poor fit]
CC(C)(C)NC(=O)NCc1nnc2n1C(C(=O)NCc1cccs1)CC2 (configuration not stated) 8.91 µM [inhibitor, single point]
Cc1nn2c(=O)cc(COC(=O)c3ccc(NC(=O)c4cccc(Br)c4)cc3)nc2s1 39.8 µM [inhibitor, single point]
O=C(NC1CCN(c2cc(-c3ccc(F)cc3)[nH]n2)C1)c1c[nH]c2ccccc12 (configuration not stated) 2.51 µM [inhibitor, partial curve, poor fit]
Cc1cnc(C2CC2)n1CCNS(=O)(=O)c1ccccc1Cl 5.01 µM [inhibitor, full curve, poor fit]
COc1ccc(-c2nnc(C[C@@H]3C[C@@H](C(C)C)[C@H](CNC(=O)c4cnccn4)C=C3C)o2)cc1 7.94 µM [inhibitor, partial curve]
Cc1ccc2c(c1)N(S(=O)(=O)c1cc(-c3onc(C)c3C)ccc1C)CCO2 10 µM [inhibitor, partial curve, poor fit]
c1ccc(Oc2ccccc2-c2cc(-c3cn[nH]c3)c3cncn3c2)cc1 56.2 µM [inhibitor, single point]
